This is an account of results in the supplement of paper PMC4723716.

SMILES strings stand for the structures. ± gives the uncertainty stated by the source. Whole data set: some 9,900 compounds, median “viability index relative to DMSO control” near 1, cut for the lowest 2% near 0.85. The list shows a part of the results.

The test system of the assay is Plasmodium falciparum NF54 stage V gametocytes. As to the kind of experiment: viability index relative to DMSO control (fraction); higher = less gametocyte killing. As to conditions: 2.5 µM, incubation time: 72 h. The procedure, abridged: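 In 1,536-well plates, 10 µl of serum-free medium holding P. falciparum NF54 stage V gametocytes (0.75% gametocytemia, 1.25% hematocrit) received compound at 2.5 µM for 72 hr at 37°C in low oxygen. After one to two hours with 3 µl of 2.5 µM MitoTracker Red CMXRos containing 0.13% saponin, red particles of 20–70 µm2 were counted in a single field per well. Viability index is reported as the particle count over the plate mean of wells treated with solvent only.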

Where [1] appears, read: library set: Broad Institute DOS.
Setting [2] is: library set: Broad Institute Blood Stage.

Molecule `O=C(c1cnccn1)N1CC(=O)N2[C@H](C1)[C@H](c1ccc(C#CC3CC3)cc1)[C@@H]2CO` came in with a viability index under setting [1] of 1.0181 ± 0.0005.
On the same count and under the same terms, as for `CCS(=O)(=O)Nc1ccc2c(c1)C(=O)N(C)[C@H]1CC[C@H](CC(=O)NCc3ccc(OC)cc3)O[C@H]1CO2`, the figure is 0.947 ± 0.11; as for `Cc1noc(C)c1S(=O)(=O)N(C)C[C@@H]1OCc2ccccc2-c2c(n(C)c3ccccc23)C(=O)N([C@@H](C)CO)C[C@@H]1C`, 1.03 ± 0.024; as for `O=C1N[C@H](c2ccccc2)COCc2cn(nn2)CC[C@H]1Cc1ccc(C(F)(F)F)cc1`, 1.04 ± 0.027.
The same measure, in the same setting: as for `C[C@H](NC(=O)C[C@@H]1C[C@@H]2c3cc(NS(=O)(=O)c4ccc(F)cc4)ccc3O[C@@H]2[C@@H](CO)O1)c1ccccc1`, the figure is 1.07 ± 0.024; as for `CN(C)CC(=O)N1C[C@H]2[C@@H](c3ccccc31)[C@@H](CO)N2C(=O)c1ccccn1`, 1.048 ± 0.004.
Regarding `COc1ccc2c3c([C@H](CO)NC[C@]33CCN(CC4CCCC4)CC3)n(C)c2c1`, the viability index under setting [2] turned out to be 0.986 ± 0.023.
In the case of `N#C[C@@H]1[C@@H](c2ccc(-c3cncnc3)cc2)[C@H](CO)N1C(=O)Cc1ccccc1`, the viability index under setting [1] was found to be 1.05 ± 0.015.
As to `C[C@@H]1CN([C@H](C)CO)C(=O)c2cc(-c3ccc(F)cc3)cnc2O[C@H]1CN(C)S(C)(=O)=O`, the viability index under setting [1] is 1.1 ± 0.046.
Still for that read-out and setting: the figure for `CC(C)[C@H]1C/C=C/C[C@@H](C)Oc2ccccc2C(=O)N(C)[C@H](Cc2ccccc2)C(=O)N1.CC(C)[C@H]1C/C=C\C[C@@H](C)Oc2ccccc2C(=O)N(C)[C@H](Cc2ccccc2)C(=O)N1` is 1.08 ± 0.087; for `CO[C@@H]1CN(C)C(=O)c2cc(NS(=O)(=O)c3cn(C)cn3)ccc2OC[C@H](C)NC[C@@H]1C` it is 0.949 ± 0.054.
As to `O=C(C[C@H]1CC[C@@H](NS(=O)(=O)c2ccccc2F)[C@H](CO)O1)NCCCN1CCOCC1`, the viability index under setting [1] turned out to be 0.967 ± 0.05.
As to `C[C@@H](NC(=O)C[C@H]1C=C[C@@H](NC(=O)c2cccnc2)[C@@H](CO)O1)c1ccccc1`, the viability index under setting [1] came to 0.959 ± 0.11.
Same read-out and setting: the figure for `CO[C@H]1CN(C)C(=O)c2ccc(NC(C)=O)cc2OC[C@@H](C)N(Cc2cccc(F)c2)C[C@@H]1C` is 1.07 ± 0.058.
Still for that read-out and setting: as for `CCCC#Cc1ccc2c(c1)O[C@H](CN(C)Cc1ccccn1)[C@@H](C)CN([C@H](C)CO)S2(=O)=O`, the figure is 0.983 ± 0.041.
In the case of `C[C@@H]1CN([C@H](C)CO)C(=O)CCCn2cc(nn2)CO[C@@H]1CN(C)S(=O)(=O)c1ccc(-n2cccn2)cc1`, the viability index under setting [1] was 1.057 ± 0.0017.
Same read-out and setting: as for `O=C(C[C@@H]1CC[C@@H](NC(=O)CN2CCOCC2)[C@H](CO)O1)NC1CCC1`, the figure is 1.08 ± 0.059; as for `O=C1N[C@H](c2ccccc2)COCc2cn(nn2)CC[C@@H]1Cc1ccc(C(F)(F)F)cc1`, 1.01 ± 0.11.
The same measure, in the same setting: as for `COCC(=O)N1[C@@H](CO)[C@H](c2ccc(-c3ccccc3OC)cc2)C12CN(C(C)=O)C2`, the figure is 0.99 ± 0.07.
On to `COc1ccc(-c2ccc([C@H]3[C@H]4CN(C(=O)Cc5ccccn5)CC(=O)N4[C@H]3CO)cc2)cc1`, for which, under setting [1], the viability index was determined as 1.02 ± 0.093.
Consider `CC(=O)N1[C@H](CO)[C@@H]2c3ccccc3N(S(=O)(=O)c3ccccc3C)C[C@@H]21`, for which the viability index under setting [1] is 0.975 ± 0.1.
Under setting [1], `CC(=O)N1[C@H](CO)[C@H](c2ccccc2)[C@H]1CN(C(=O)c1ccccc1F)C(C)C` showed a viability index of 0.996 ± 0.048.
Consider `CC(C)C#Cc1ccc([C@H]2[C@@H](CO)N3C(=O)CN(C(=O)NC4CCCC4)C[C@H]23)cc1`, for which the viability index under setting [1] worked out at 0.939 ± 0.083.
The same measure, in the same setting: as for `CS(=O)(=O)N1[C@H](C#N)[C@H](c2ccc(C#Cc3cccc(F)c3)cc2)[C@H]1CO`, the figure is 0.9841 ± 0.0042.
Still for that read-out and setting: as for `CC(C)[C@H]1COCn2nncc2CC[C@H](Cc2ccc(Cl)cc2)C(=O)N1`, the figure is 1.07 ± 0.026.
The same measure, in the same setting: the figure for `COc1ccc(CN(C)C[C@@H]2OCCCC[C@H](C)Oc3ccc(NC(=O)C4CCCCC4)cc3C(=O)N([C@@H](C)CO)C[C@@H]2C)cc1` is 1 ± 0.02; for `COc1cccc(-c2ccc3c(c2)[C@@H]2[C@@H](CCN2S(=O)(=O)c2cn(C)cn2)[C@H](CO)N3)c1` it is 1.09 ± 0.055; for `CN1c2ccc(Br)cc2[C@H]2[C@H](CCN2C(=O)CN2CCOCC2)[C@@H]1CO` it is 1.05 ± 0.077.
Turning to `CS(=O)(=O)N1[C@H](CO)[C@@H](c2ccccc2)C12CN(Cc1ccccn1)C2`, the viability index under setting [1] was 1.07 ± 0.07.
On the same count and under the same terms, as for `CC(=O)N1[C@H](CO)[C@@H](c2ccccc2)C12CN(Cc1ccc(Cl)cc1)C2`, the figure is 1.06 ± 0.056; as for `c1cc(-c2ccc([C@@H]3[C@H]4CNC[C@@H]3N4Cc3nccs3)cc2)ccn1`, 1.04 ± 0.092; as for `Cc1noc(C)c1NC(=O)N(C)C[C@@H]1Oc2cc(C#CCN(C)C)ccc2S(=O)(=O)N([C@@H](C)CO)C[C@H]1C`, 0.947 ± 0.18.
Still for that read-out and setting: as for `COc1ccc(C#Cc2cccc(-c3nc(C(=O)Nc4ccc(-c5ccccc5)cc4)cc4c3[C@@H](CCO)N(S(=O)C(C)(C)C)C4)c2)cc1OC` (stereo partly specified), the figure is 1.016 ± 0.0075.
Under setting [2], `COc1ccc2c3c([C@@H](CO)N(C[C@]33CCN(CC3)C(=O)Nc3cccc(F)c3)C(=O)C3CCCC3)n(C)c2c1` had a viability index of 0.822 ± 0.039.
Under setting [1], `N#Cc1cccc(-c2ccc([C@@H]3[C@@H]4CN(C(=O)C5CCOCC5)C[C@H]3N4)cc2)c1` showed a viability index of 1 ± 0.072.
Under setting [1], `O=C(C[C@H]1C[C@H]2c3cc(NS(=O)(=O)c4ccc(F)cc4)ccc3O[C@H]2[C@H](CO)O1)N1CCc2ccccc2C1` came in with a viability index of 0.861 ± 0.059.
In the case of `COc1cccc(C#Cc2ccc([C@@H]3[C@H](C#N)N[C@H]3CO)cc2)c1`, the viability index under setting [1] was determined as 1.01 ± 0.066.
Turning to `CC(C)NC(=O)N1[C@@H](CO)[C@H](c2ccccc2)[C@@H]1CN(C)C(=O)c1cccnc1`, under setting [1], the viability index is 1.08 ± 0.036.
On the same count and under the same terms, as for `CS(=O)(=O)N1[C@H](C#N)[C@@H](c2ccc(/C=C/c3ccccc3)cc2)[C@H]1CO`, the figure is 1.11 ± 0.044; as for `CN1C(=O)c2cc(NC(=O)c3cnccn3)ccc2OC[C@H]2O[C@@H](CC(=O)NCC3CCCCC3)CC[C@H]21`, 0.994 ± 0.031; as for `O=C(CC1CC1)N1CC(=O)N2[C@H](CO)[C@H](c3ccc(C#Cc4cccc(F)c4)cc3)[C@H]2C1`, 0.998 ± 0.045.
Still for that read-out and setting: as for `O=C(C[C@@H]1CC[C@H]2[C@@H](COC[C@H](O)CN2CC2CCOCC2)O1)NCc1ccc(Cl)cc1`, the figure is 1.13 ± 0.074.
Still for that read-out and setting: as for `COCC(=O)Nc1ccc2c(c1)C(=O)N(C)[C@H]1CC[C@H](CC(=O)N3CCc4ccccc4C3)O[C@H]1CO2`, the figure is 1.01 ± 0.041; as for `CCCC(=O)Nc1ccc2c(c1)OC[C@@H](C)NC[C@H](C)[C@H](OC)CN(C)C2=O`, 0.984 ± 0.04.
Turning to `C[C@@H]1CN([C@H](C)CO)C(=O)Cc2cc(NC(=O)CCCCCC(=O)Nc3ccccc3N)ccc2O[C@@H]1CN(C)S(=O)(=O)c1cccs1`, the viability index under setting [1] was 1.0088 ± 0.00029.
On the same count and under the same terms, the figure for `COC(=O)C[C@@H]1C[C@H]2c3cc(NC(=O)C4CCOCC4)ccc3O[C@H]2[C@@H](CO)O1` is 1.06 ± 0.051.
